# Experimental data from PubChem BioAssay AID686978 (National Center for Advancing Translational Sciences (NCATS), 2013).
# About 64,000 (15%) of roughly 420,000 compounds were called active. This list was built around the results that the source calls inconclusive (neither active nor inactive); the mix of calls is not that of the screen. Calls follow the shape of the dose curve; as a rule, active = well fitted inhibition curve with a large enough effect; inconclusive = small, poorly fitted or top-dose-only effect; inactive = flat fitted curve, though single readings scatter. Potencies of inconclusive entries are left out as doubtful fits.
# Assay: qHTS for Inhibitors of human tyrosyl-DNA phosphodiesterase 1 (TDP1): qHTS in cells in absence of CPT; also: nearly all actives have a fitted effect of over 55% in size
# Settings: DT40 Tdp1-/- hTDP1 cells, no CPT, ATP luminescence, 48 h; activity change, negative = growth inhibition: at 46.2 µM (top of the series) unless noted
# Method in brief: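 Compound effects on proliferation are scored in DT40 Tdp1-/-;hTDP1 cells in the absence of CPT. ATP levels (CellTiter-Glo luminescence) are recorded after a ≥48 hr, 37 °C incubation.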
# % is scaled to controls: 0 for no effect and ±100 for the full control effect; potency is read from the fitted curve at half-maximal effect; tags tell the direction and shape of the fitted curve.
SMILES,Potency,"activity change, negative = growth inhibition"
COc1ccccc1CCC(=O)Nc1ccc(S(=O)(=O)Nc2ncccn2)cc1,"inconclusive [inhibitor, single point]",–
O=C(Cn1cc(C(F)(F)F)ccc1=O)Nc1ccc2c(c1)OCCO2,–,inactive: -7.57%
CN1CCN(C(=O)C2CCC(=O)N(Cc3cccc(C(F)(F)F)c3)C2)CC1 (stereo not given),"inconclusive [inhibitor, single point]",–
O=C(Nc1ccccc1)OCc1cc(-c2ccccc2Cl)on1,"inconclusive [inhibitor, single point]",–
CS(=O)(=O)N1CCC(N2CCN(Cc3ccccc3)C(=O)C2=O)CC1,–,inactive: -13.5%
O=C(Nc1ccc(N2CCCCCC2)cc1)c1ccc[nH]1,"inconclusive [inhibitor, single point]",–
C/C(=N/Nc1ccc([N+](=O)[O-])cc1)c1ccc(C)cc1C,–,inactive: -102%
CCOc1ccc2oc(=O)cc(CN3CCN(C(=O)c4ccc(F)cc4)CC3)c2c1,"inconclusive [inhibitor, single point]",–
CCNC(=O)CC1C(=O)N(c2cccc(OC)c2)C(=O)N1Cc1ccc(OC)c(OC)c1 (stereo not given),–,inactive: -14.9%
COc1ccccc1Oc1ccccc1[N+](=O)[O-],–,inactive: -1.57%
COCCNC(=O)c1ccc2nc(Cc3ccc(OC)c(OC)c3)oc2c1,–,inactive: 0.0783%
CCCCOC(=O)CSC1=C(C#N)C(c2cccnc2)C(C(=O)OCC)=C(c2ccccc2)N1 (stereo not given),"inconclusive [inhibitor, partial curve, poor fit]",–
Cc1ccc(Cc2c(-c3cccc(Br)c3)nc3ccc(Cl)cn23)cc1,active: 18.4 µM,–
O=C1CCSC2(C(=O)N(Cc3ccc(F)cc3)c3ccccc32)N1c1ccc(F)c(F)c1 (stereo not given),active: 10.3 µM,–
CCc1ccc(-c2nc(CS(=O)CC(=O)NCCc3ccc(Cl)cc3)c(C)o2)cc1 (stereo not given),"inconclusive [inhibitor, single point]",–
CC(C)n1nnnc1C1c2ccccc2C(=O)N1Cc1cccc(F)c1 (stereo not given),–,inconclusive: -31.7% [inhibitor]
COc1ccc(N2C3=C(C(=O)CC(C)(C)C3)C(c3ccccc3OC)C3=C2CC(C)(C)CC3=O)cc1,active: 16.4 µM,–
COc1ccc(S(=O)(=O)Nc2ccc(-c3ccc(N4CCCC4)nn3)cc2)cc1C,"inconclusive [inhibitor, single point]",–
COc1ccc(CNC(=O)CN(C(=O)CCC(=O)Nc2ccccn2)c2ccccc2OC)cc1,"inconclusive [inhibitor, single point]",–
O=C1CCCC2=C1C(c1ccc(O)c(O)c1)c1c(ccc3ncccc13)N2 (stereo not given),"inconclusive [inhibitor, single point]",–
O=C1c2ccccc2C(Nc2cccc(C(F)(F)F)c2)N1Cc1ccco1 (stereo not given),active: 16.4 µM,–
COc1ccc(C2CCCN2C(=O)Nc2ccc(Cl)cc2)cc1OC (stereo not given),"inconclusive [inhibitor, single point]",–
CS(=O)(=O)Cc1ccc(C(=O)N(CCc2ccccc2)Cc2ccccc2)cc1,"inconclusive [inhibitor, full curve]",–

SMILES,Potency,"activity change, negative = growth inhibition"
CCOc1ccccc1N(CC(=O)N1CCc2ccccc2C1)S(=O)(=O)c1ccccc1,"inconclusive [inhibitor, single point]",–
O=C(CCl)N1N=C(c2ccco2)CC1c1ccco1 (stereo not given),active: 13 µM,–
O=C(Cn1cc(C(F)(F)F)cc(Cl)c1=O)NC1CCS(=O)(=O)C1 (stereo not given),–,inactive: 6.69%
COC(=O)CCCCCNc1ccc(C(=O)OC)cc1N,–,inactive: 3.48%
CC(=O)C1=C(O)C(=O)N(c2nccs2)C1c1ccc(Br)cc1 (stereo not given),"inconclusive [inhibitor, single point]",–
COc1ccc(CC(N)c2csc(NC(=O)c3cccc(OC(F)(F)F)c3)n2)cc1 (stereo not given),active: 11.6 µM,–
COc1ccc(N2CCN(C(=O)Cc3ccc(-n4c(=O)[nH]c5ccccc5c4=O)cc3)CC2)cc1,"inconclusive [inhibitor, single point]",–
O=C(NCCc1ccccc1)C1CCN(C(=O)Nc2ccccc2)CC1,–,inactive: -18.3%
COc1cccc(NC(=O)Cn2c(=O)n(-c3ccc(C)cc3)c(=O)c3ccc(C(=O)NCc4ccco4)cc32)c1,"inconclusive [inhibitor, single point]",–
C=CCCC(=O)Nc1ccc(COC(=O)N2CCOCC2)cc1,–,inactive: -10.8%
C=CCOc1cccc(C(=O)N2CCC(CCC(=O)NC3CC3)CC2)c1,–,inactive: -20.4%
CCc1cccc(NC(=O)C(c2ccccc2)N2Cc3ccccc3C2=O)c1 (stereo not given),–,inactive: -22.6%
CCC(Sc1nncn2c1cc1oc(C)cc12)C(=O)Nc1ccc(F)cc1 (stereo not given),"inconclusive [inhibitor, single point]",–
CCCCn1c(C)nc2cc(S(=O)(=O)N3CCOCC3)ccc21,–,inactive: -24.9%
NC(c1ccccc1)c1csc(NC(=O)Nc2cccc(Cl)c2)n1 (stereo not given),"inconclusive [inhibitor, single point]",–
Cc1ccc2cc(CN(CC3CCCO3)S(=O)(=O)c3ccccc3)c3nnnn3c2c1 (stereo not given),–,inactive: -28.7%
COc1cccc2sc3cc(NCCCN4CCOCC4)ccc3c(=O)c12,"inconclusive [inhibitor, single point]",–
CCOCc1ccccc1Nc1ncnc2onc(-c3ccc(Cl)cc3)c12,"inconclusive [inhibitor, single point]",–
Cc1ccc(OC2CCN(C(=O)[C@H]3O[C@@H](n4cnc5c(N)ncnc54)[C@H](O)[C@@H]3O)CC2)cc1,"inconclusive [inhibitor, single point]",–
COc1ccc(CN2C(=O)CC(C(=O)NCCc3ccc(S(N)(=O)=O)cc3)SC2=Nc2ccccc2)cc1 (stereo not given),"inconclusive [inhibitor, partial curve]",–
Cc1cccc(NC(=O)Cn2cnc3c(oc4ccccc43)c2=O)c1,–,inactive: -6.25%
C=CCN1c2ccccc2[C@]23C[C@@H](C(=O)OC)N(C(=O)c4ccc(Br)cc4)C2=NC(C(=O)OC)=C(C(=O)OC)[C@H]13,"inconclusive [inhibitor, single point]",–
